# In PubChem BioAssay AID651820 (National Center for Advancing Translational Sciences (NCATS), 2012):
# “And” between values parts separate entries of the source, which are not always exact repeats. Equal entries are not always repeated. Screen size: about 340,000 compounds; about 12,000 (3.5%) were called active. This list was built around the results that the source calls inconclusive (neither active nor inactive); the mix of calls is not that of the screen. Calls follow the shape of the dose curve; as a rule, active = well fitted inhibition curve with a large enough effect; inconclusive = small, poorly fitted or top-dose-only effect, or another doubt; inactive = no such curve, though single readings can be large or run the other way. Potencies of inconclusive entries are left out as doubtful fits.
# Experiment: qHTS Assay for Inhibitors of Hepatitis C Virus (HCV)
# Conditions: Huh7.5.1 HCVcc-Cre (HCVcc is cell-culture hepatitis C virus) infection, luciferase reporter, 44 h; series mostly up to 41.8 µM
# In short: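 A cell-based infection assay in which seeded cells (1,000 per well) receive test compound after 4 h, are inoculated with HCVcc-Cre at approximately 0.5 moi, and are incubated 44 h before luminescence detection.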
# Potency is read from the fitted curve at half-maximal effect; tags tell the direction and shape of the fitted curve.
row,Compound,Potency
1,C=CC1=C(C(=O)O)N2C(=O)[C@@H](NC(=O)/C(=N\O)c3csc(N)n3)[C@H]2SC1 (stereo in doubt),"inconclusive [inhibitor, partial curve, poor fit]"
2,COc1ccc2c(c1)NC(c1ccc(N(C)C)cc1)c1cccn1-2 (stereo unspecified),inactive
3,C=CCOc1c(Br)cc(CNc2nccs2)cc1OC,"inconclusive [inhibitor, partial curve]"
4,CCOC(=O)c1c(-c2ccccc2)csc1NC(=O)/C(C#N)=C\c1ccc(O)c(OC)c1,"inconclusive [inhibitor, single point]"
5,O=C(CN(Cc1ccco1)C(=O)CNS(=O)(=O)c1ccc(F)cc1)NCc1ccccc1,inactive
6,Cc1ccc(-n2c(C)cc(C3=NNC(=NC4CC4)SC3)c2C)cc1C,inactive
7,Cc1cccc(C)c1OCC(=O)NCc1nnc(SCC(=O)NC2CCCCC2)n1C,inactive
8,O=C(CSCc1ccc(Cl)cc1)Nc1ccc2c(c1)OCO2,inactive
9,COc1cc(NC(=S)NCc2ccco2)c(OC)cc1Cl,inactive
10,CC(=O)c1ccccc1OCC(O)CN1CCN(C(c2ccccc2)c2ccccc2)CC1 (stereo unspecified),active: 7.94 µM and active: 10 µM
11,O=C(Nc1ccc(C(=O)NCc2ccc(F)cc2)cc1)C1=CSCCO1,inactive
12,O=C(C1CCN(Cc2ccc(F)cc2)CC1)N1CCN(C/C=C/c2ccccc2)CC1,"inconclusive [inhibitor, partial curve, poor fit]"
13,O=C(c1cc(-c2ccccc2O)on1)N1CCc2ccccc2C1,inactive
14,CCCCn1nnc(NC(=O)c2cc3ccccc3o2)n1,inactive
15,O=C(/C=C/c1ccccc1Cl)Nc1cccc(S(=O)(=O)NC2=NCCCCC2)c1,"inconclusive [inhibitor, partial curve]"
16,CCn1c(COc2ccccc2C)nnc1SCC(=O)N1CCC(C)CC1,"inconclusive [inhibitor, full curve, poor fit]"
17,Cc1ccc(-c2cnc(NC(=O)c3cccc(Br)c3)s2)c(C)c1,"inconclusive [inhibitor, single point]"
18,O=S(=O)(NC1CCCCC1)c1ccc(F)c2ccccc12,active: 35.5 µM
19,Cc1cccc(-n2cc(CN3CCN(Cc4nccn4C)CC3)c(-c3cccc(F)c3)n2)c1,"inconclusive [inhibitor, partial curve]"
20,O=C(NC(Nc1ncc(S(=O)(=O)c2ccc([N+](=O)[O-])cc2)s1)(C(F)(F)F)C(F)(F)F)c1ccc(Cl)cc1,active: 4.47 µM
21,COc1ccc(C(CNC(=O)c2ccc(OCc3c(C)noc3C)cc2)N2CCCC2)cc1 (stereo unspecified),"inconclusive [inhibitor, single point]"
22,CCOc1ccc(Oc2c(/C=N/NC(=O)C3CC3)c(C)nn2-c2ccccc2)cc1,"inconclusive [inhibitor, partial curve]"
23,Cc1ccc(NC(=O)CSC2=C(C#N)C(c3ccco3)C3=C(CCCC3=O)N2)cc1 (stereo unspecified),inactive
24,O=C(N/N=C/c1cccc(Br)c1)c1ccc(N2CCCC2=O)cc1,"inconclusive [inhibitor, single point]"

row,Compound,Potency
1,Cc1oc(-c2ccccc2Cl)nc1CSCC(=O)N1CCCC1,"inconclusive [inhibitor, full curve, poor fit]"
2,COc1ccc(C(CNC(=O)c2ccco2)N2CCCC2)cc1 (stereo unspecified),"inconclusive [inhibitor, single point]"
3,CCOc1ccccc1NC(=O)COC(=O)C1CCC1,inactive
4,COc1ccc(-c2coc3cc(OC(C)=O)c(OC)cc3c2=O)cc1,inactive
5,CCCc1nc(NCc2ccncc2)c2nnn(Cc3ccccc3F)c2n1,"inconclusive [inhibitor, full curve]"
6,CC(=O)c1c(C)n(Cc2ccccc2Cl)c2ccc(O)cc12,inactive
7,CC(C)(C)C(=O)Nc1c2c(nn1-c1ccccc1)CSC2,inactive
8,O=C(Nc1ccc(N2CCOCC2)cc1)c1ccc(COc2ccccc2)cc1,"inconclusive [inhibitor, partial curve]"
9,COC(=O)c1c(NC(=O)c2cccnc2)sc(C)c1C,active: 10 µM
10,Cc1cccn2c(=O)c3cc(C(=O)NCc4cccnc4)c(=N)n(C(C)C)c3nc12,"inconclusive [inhibitor, single point]"
11,CC(=O)c1c(C)[nH]c(C(=O)OCC(=O)NCCCc2ccccc2)c1C,"inconclusive [inhibitor, partial curve]"
12,COc1cccc(-c2nc(NCc3cccnc3)c3ccccc3n2)c1O,"inconclusive [inhibitor, partial curve]"
13,COC(=O)c1sccc1-c1ccc(C(=O)Nc2cccc(Cl)c2)o1,"inconclusive [inhibitor, partial curve]"
14,O=[N+]([O-])c1ccc(Oc2ncccn2)cc1,inactive
15,Cc1ccc(/C=N/NC(=O)c2csc(C)c2)o1,inactive
16,COc1cccc(Nc2ccc(Nc3cccc(OC)c3)nn2)c1,"inconclusive [inhibitor, partial curve, poor fit]"
17,FC(F)(F)c1nnc(-c2ccccc2)nc1Sc1ccccc1,"inconclusive [inhibitor, single point]"
18,CCCCOc1ccc(C(=O)NNC(=S)NC(=O)CC)cc1,"inconclusive [inhibitor, single point]"
19,Cc1ccccc1CNS(=O)(=O)c1ccccc1[N+](=O)[O-],inactive
20,CCCc1nc2ccc(NC(=O)c3ccco3)cc2c(=O)n1Cc1ccccc1Cl,"inconclusive [inhibitor, partial curve]"
21,O=C(Nc1ccccc1-c1nnc(SCc2ccccc2)o1)c1ccccc1,"inconclusive [inhibitor, full curve, poor fit]"
22,Cn1c(COc2ccccc2)nnc1SCc1cc(=O)[nH]c2ccccc12,"inconclusive [inhibitor, single point]"
23,CCn1c(O)c(/C=N/N=C2CCCCC2)c2cc(C3=NNC(=O)CC3)ccc21,"inconclusive [inhibitor, single point]"
24,CCOC(=O)[C@]12Cc3cc(OC)c(OC)cc3[C@H]1N(Cc1ccccc1)C(=O)c1ccccc12,"inconclusive [inhibitor, single point]"

row,Compound,Potency
1,Cc1cccc(N2CCN(C(=O)CCS(=O)(=O)c3ccc4c(c3)NC(=O)C(C)S4)CC2)c1C (stereo unspecified),"inconclusive [inhibitor, full curve, poor fit]"
2,Cc1ccc(NC(=S)NCCc2c[nH]c3ccccc23)cc1,"inconclusive [inhibitor, single point]"
3,CCCCc1ccc(-c2nc(-c3ccncc3)no2)cc1,inactive
4,O=c1[nH]cnc2c1ncn2C1OC(CO)C(O)C1O (stereo unspecified),inactive
5,COc1ccc(NC(=O)Nc2cccc3c2O[C@H](CN(C)C(=O)Nc2ccc4c(c2)OCO4)[C@@H](C)CN([C@H](C)CO)C3=O)cc1,"inconclusive [inhibitor, partial curve]"
6,OCCCn1c(CCNc2nc(-c3ccc(Cl)cc3)cs2)nc2cc(C(F)(F)F)ccc21,"inconclusive [inhibitor, partial curve]"
7,O=C(Nc1nnc(-c2cc(Cl)ccc2Cl)o1)C1=COCCO1,"inconclusive [inhibitor, full curve, poor fit]"
8,Cc1occc1C(=O)N=Nc1c(O)n(C)c2ccccc12,inactive
9,CCCc1nnc(NC(=O)c2cccnc2)s1,inactive
10,CN(C)/C=N/c1ncnc2c1cnn2-c1ccc(C(F)(F)F)cn1,inactive
11,CCCC(=O)Nc1ccc(-c2csc(N/N=C\c3ccncc3)n2)cc1,"inconclusive [inhibitor, full curve]"
12,COc1ccc(OC)c(C(C)NC(=O)C(C)n2cc([N+](=O)[O-])cn2)c1 (stereo unspecified),inactive
13,CC/C(=N\Nc1ccc([N+](=O)[O-])cc1)c1ccccc1,"inconclusive [inhibitor, partial curve]"
14,Cc1ccc(N/C(=N/S(=O)(=O)c2cccs2)c2ccccc2)c(C)c1,"inconclusive [inhibitor, single point]"
15,O=c1cc2c(nn1Cc1ccc(Cl)cc1Cl)-c1ccccc1CC2,"inconclusive [inhibitor, partial curve]"
16,Cc1ccc2nc(NC(=O)C3CCN(S(=O)(=O)c4cccc5nsnc45)CC3)sc2c1,"inconclusive [inhibitor, partial curve]"
17,Cc1nc2sc3c(c2c(=N)n1N)CCCC3,inactive
18,Cc1cccc(OCC(=O)Nc2cc(NC(=O)COc3cccc(C)c3C)cc(C(=O)O)c2)c1C,inactive
19,O=C(Nc1cccc(NC(=O)c2ccc([N+](=O)[O-])o2)c1)c1ccco1,"inconclusive [inhibitor, partial curve]"
20,COCCCNC(=O)C[C@H]1C[C@H](C(=O)N(C(C)C)C(C)C)[C@@]2(C)c3[nH]c4ccc(Cl)cc4c3CCN2C1=O,"inconclusive [inhibitor, partial curve]"
21,COc1ccc(C(CCN(Cc2ccc(OC)c(OC)c2)C(=O)CCl)c2ccccc2)cc1 (stereo unspecified),"inconclusive [inhibitor, partial curve]"
22,CN=C1S/C(=C\c2ccc(SC)cc2)C(=O)N1C,"inconclusive [inhibitor, single point]"
23,CCOc1ccccc1N1CCN(C(=O)c2ccc3nc(N)sc3c2)CC1,"inconclusive [inhibitor, single point]"
